From the BET-seq Pho4 binding data (Le et al. 2018)
The list shows a part of the results. These are noisy estimates, calculated here from bound and input reads.

The sequences below were run against T1, Pho4 (S. cerevisiae) (UniProt P07270) (assay: relative binding free energy (BET-seq); higher = weaker binding). Conditions: reference: library average.
T1 sequence: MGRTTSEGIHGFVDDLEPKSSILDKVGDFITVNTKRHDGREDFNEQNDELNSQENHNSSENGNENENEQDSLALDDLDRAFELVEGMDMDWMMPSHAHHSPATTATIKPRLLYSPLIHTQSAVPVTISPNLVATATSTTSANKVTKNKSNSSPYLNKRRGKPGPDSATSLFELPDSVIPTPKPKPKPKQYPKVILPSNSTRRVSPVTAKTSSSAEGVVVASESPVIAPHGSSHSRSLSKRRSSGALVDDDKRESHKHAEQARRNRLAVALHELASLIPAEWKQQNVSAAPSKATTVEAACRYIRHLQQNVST

| Sequence | relative binding free energy [kcal/mol] |
| --- | --- |
| CTTATCACGTGTGTAA | 0.15 |
| GGGTCCACGTGTATGA | 0.06 |
| TGCCTCACGTGGAGTG | 0.18 |
| ATCTGCACGTGGGTGC | -0.18 |
| GTAGTCACGTGGGGGC | -0.06 |
| GTTAACACGTGGGGGC | -0.13 |
| CGTTGCACGTGGGGCT | -0.29 |
| TAAAGCACGTGATGGG | 0 |
| TAACACACGTGTTGGT | 0.12 |
| CTGTGCACGTGGTAGG | -0.05 |
| TGGAGCACGTGTGCAT | -0.06 |
| TATCGCACGTGGTCGG | -0.15 |
| TTTCACACGTGTAAAG | 0.36 |
| ATAGACACGTGGTGGA | 0.03 |
| ATTAACACGTGGTAGT | -0.2 |
| GGTTCCACGTGATTTT | 0.1 |
| AGCGTCACGTGGTGTC | -0.01 |
| GGTTCCACGTGTGTTT | 0.18 |
| CTTTTCACGTGCGTTG | 0.16 |
| TAGTGCACGTGGGAGC | -0.04 |
| TTAGTCACGTGGTTGT | 0.04 |
| GTTGGCACGTGTATTG | 0.04 |
| CGTTACACGTGTTTGT | 0.03 |

| Sequence | relative binding free energy [kcal/mol] |
| --- | --- |
| CGGCGCACGTGGTGAG | -0.14 |
| GGAGTCACGTGTACTT | 0.18 |
| TGGAGCACGTGGGTAT | -0.29 |
| CGTTGCACGTGAGGAT | 0.36 |
| TTTTTCACGTGAAATC | 0.46 |
| ATGTACACGTGGTTTT | 0.14 |
| ATAGGCACGTGCTAGG | -0.27 |
| ACGTTCACGTGATTTG | 0.26 |
| TTGTACACGTGTTGGG | 0.22 |
| GTAAGCACGTGTTGTT | -0.02 |
| TCTGTCACGTGGTTGA | -0.02 |
| TTCGACACGTGTGTTG | 0.06 |
| TGGAGCACGTGGTAGT | -0.09 |
| TTGTCCACGTGGGTAG | 0.05 |
| TCTATCACGTGTTGTT | 0.22 |
| TTAAGCACGTGTTTCG | -0.25 |
| ATAGTCACGTGATGAG | 0.13 |
| AGAGCCACGTGTTGTT | 0.02 |
| TACGGCACGTGGTAGT | -0.29 |
| GTTAGCACGTGGCATA | 0.01 |
| CAAAGCACGTGGTTGG | -0.09 |
| TGTGGCACGTGCCGGT | -0.21 |
| TGGAGCACGTGGCCGG | -0.24 |

| Sequence | relative binding free energy [kcal/mol] |
| --- | --- |
| CTAGGCACGTGGGCGG | -0.28 |
| GAGGGCACGTGGGGGC | -0.18 |
| GGTTTCACGTGGGTGT | 0.25 |
| GTACGCACGTGTGTCG | -0.03 |
| TGTAGCACGTGTGATG | 0.1 |
| ATTAGCACGTGTATGG | -0.06 |
| AGGTACACGTGGCGGG | 0.04 |
| TTAATCACGTGTGCGG | 0.11 |
| GGGGTCACGTGCCTGG | 0 |
| TGTTTCACGTGTATAT | 0.32 |
| GTCGGCACGTGTTTAG | 0 |
| AGTCTCACGTGGTAGG | 0.17 |
| GGTTGCACGTGCAATT | 0.03 |
| AATAACACGTGATTGG | 0.09 |
| TGATGCACGTGGAAGG | 0.13 |
| GATAGCACGTGCTGGG | -0.08 |
| AGGGACACGTGGTCGA | -0.01 |
| TGTTCCACGTGTCGAT | 0.22 |
| AGTACCACGTGATGTT | 0.09 |
| TGGTTCACGTGTTAAT | 0.31 |
| ATTGTCACGTGAATGA | 0.26 |
| GTGTTCACGTGGGATC | 0.32 |
| GAGTTCACGTGGCGTT | 0.33 |

| Sequence | relative binding free energy [kcal/mol] |
| --- | --- |
| GACTGCACGTGGGCTG | 0.06 |
| GTGGTCACGTGTGTGA | 0.18 |
| GTTTACACGTGTGTAT | 0.1 |
| TGGTTCACGTGGCTTC | 0.26 |
| TCTTGCACGTGTATGG | -0.03 |
| AATGTCACGTGCTTGG | -0.06 |
| AGTGACACGTGGGAAG | -0.12 |
| TGGTGCACGTGCAGCG | 0.08 |
| GGTTACACGTGAGATT | 0.24 |
| GTATTCACGTGTTGTC | 0.17 |
| TTGTCCACGTGGTGCG | -0.04 |
| CGAAGCACGTGTGGGG | -0.04 |
| TTTAGCACGTGAGAAT | 0.09 |
| TCCGTCACGTGGGGCG | 0.01 |
| ATTATCACGTGTGTGG | 0.16 |
| AAGGTCACGTGGAGAA | 0.16 |
| GAAGTCACGTGTGGTT | 0.32 |
| TTTTTCACGTGTTATA | 0.22 |
| GGGCTCACGTGAGTAG | 0.38 |
| ACGGGCACGTGTAGGT | -0.07 |
| GTGTACACGTGTTTGA | 0.1 |
| AATGTCACGTGTGCGA | 0.18 |
| AAAAACACGTGGTAGG | 0 |

| Sequence | relative binding free energy [kcal/mol] |
| --- | --- |
| AAGGGCACGTGTGTTA | -0.19 |
| TCTTTCACGTGTGCAG | 0.26 |
| CATGGCACGTGGTGCA | -0.2 |
| AAGAACACGTGGGTGT | -0.11 |
| CGGATCACGTGCTGGG | 0.06 |
| CCAGTCACGTGGTGTG | -0.08 |
| TTTAACACGTGGTGGA | -0.12 |
| GTGTCCACGTGGATGG | -0.02 |
| GTATCCACGTGATTTG | 0.22 |
| TTTATCACGTGTAAGG | 0.22 |
| TCTGTCACGTGGTGTT | 0.03 |
| CAGTGCACGTGTATGG | 0.12 |
| GCTTGCACGTGGGTAG | -0.03 |
| CGTGTCACGTGGAATT | 0.23 |
| TGAGACACGTGTATAT | 0.11 |
| AATTACACGTGGGTTA | 0.08 |
| AGTAACACGTGTAAGG | 0.2 |
| CTTGACACGTGGGATA | 0.02 |
| TAGATCACGTGTCTTT | 0.2 |
| GCAGTCACGTGAGTTG | 0.21 |
| ATATACACGTGTGTTG | -0.07 |
| TCAGTCACGTGAGGGA | 0.21 |
| TTAGTCACGTGAACGT | 0.16 |
